# Data: the supplement of paper PMC10037445
# Whole data set: some 2,900 compounds, median “NF-kB SEAP reporter activity, fold change vs agonist alone” near 0.99, cut for the highest 2% near 2.6. This is one part of the list.
# What was measured:
# RAW-Dual [1] = assay: NF-kB SEAP reporter activity, fold change vs agonist alone; higher = enhanced NF-kB activity; details: cytotoxicity flag (confluency mask): not cytotoxic
# Procedure, shortened: (§1)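 RAW-Dual macrophages (50,000 cells/well in DMEM, 384-well plates) received 50 nL of library stock by pin tool, then a PRR agonist 1 h later, and were kept at 37 °C, 5% CO2. After 20 hours, supernatant was read for IRF by QuantiLuc luminescence and for NF-κB by QuantiBlue absorbance at 620 nm. Reporter activity is fold change over agonist-alone wells. Cytotoxic wells had IncuCyte confluency below 70% of agonist controls in both mask sets.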
# RAW-Dual [2] = assay: NF-kB SEAP reporter activity, fold change vs agonist alone; cytotoxicity flag (confluency mask): not cytotoxic; higher = enhanced NF-kB activity
# Procedure, shortened: as §1
# [3] = library stock concentration (final ~1000-fold dilution): 10 mM, agonist: MPLA (TLR4) […]
# [4] = agonist: ODN 1826 (TLR9) 0.5 ug/mL
# [5] = agonist: Pam2CSK4 (TLR2/6) 0.1 ug/mL
# [6] = agonist: Pam3CSK4 (TLR2/1) 0.1 ug/mL
# [7] = library stock concentration (final ~1000-fold dilution): 10 mM, agonist: Imiquimod (TLR7) […]
# [8] = library stock concentration (final ~1000-fold dilution): 10 mM water, agonist: Imiquimod (TLR7) […]
# [9] = library stock concentration (final ~1000-fold dilution): 10 mM water, agonist: MPLA (TLR4) […]
smiles,measurement,setting,value
CN1C2CCC1CC(OC(=O)C(CO)c1ccccc1)C2.CN1C2CCC1CC(OC(=O)C(CO)c1ccccc1)C2.O=S(=O)(O)O (centres undefined),NF-kB SEAP reporter activity,RAW-Dual [1]; [3],1.05
Cn1cc(C2=C(c3cn(C4CCN(Cc5ccccn5)CC4)c4ccccc34)C(=O)NC2=O)c2ccccc21 (library stock concentration (final ~1000-fold dilution): 10 mM),NF-kB SEAP reporter activity,RAW-Dual [2]; agonist: LPS (TLR4) 0.1 ug/mL,1.92
same,NF-kB SEAP reporter activity,RAW-Dual [2]; [4],1.37
same,NF-kB SEAP reporter activity,RAW-Dual [2]; [5],1.48
same,NF-kB SEAP reporter activity,RAW-Dual [2]; [6],1.96
Cn1cc(C2=C(c3cn(C4CCN(Cc5ccccn5)CC4)c4ccccc34)C(=O)NC2=O)c2ccccc21,NF-kB SEAP reporter activity,RAW-Dual [1]; [7],1.35
same,NF-kB SEAP reporter activity,RAW-Dual [1]; [3],1.27
CNC1CC(N)C(O)C(OC2OC(CO)C(O)C3OC4(OC(C(N)CO)C(O)C(O)C4O)OC23)C1O (centres undefined) (library stock concentration (final ~1000-fold dilution): 10 mM water),NF-kB SEAP reporter activity,RAW-Dual [2]; agonist: LPS (TLR4) 0.1 ug/mL,1.28
same,NF-kB SEAP reporter activity,RAW-Dual [2]; [4],1.28
same,NF-kB SEAP reporter activity,RAW-Dual [2]; [5],1.64
same,NF-kB SEAP reporter activity,RAW-Dual [2]; [6],1.38
CNC1CC(N)C(O)C(OC2OC(CO)C(O)C3OC4(OC(C(N)CO)C(O)C(O)C4O)OC23)C1O (centres undefined),NF-kB SEAP reporter activity,RAW-Dual [1]; [8],1.05
same,NF-kB SEAP reporter activity,RAW-Dual [1]; [9],1.13
CCN(C)C(=O)Oc1cccc(C(C)N(C)C)c1.O=C(O)C(O)C(O)C(=O)O (centres undefined),NF-kB SEAP reporter activity,RAW-Dual [1]; [7],0.909
same,NF-kB SEAP reporter activity,RAW-Dual [1]; [3],0.959
CCN(C)C(=O)Oc1cccc(C(C)N(C)C)c1.O=C(O)C(O)C(O)C(=O)O (centres undefined) (library stock concentration (final ~1000-fold dilution): 10 mM),NF-kB SEAP reporter activity,RAW-Dual [2]; agonist: LPS (TLR4) 0.1 ug/mL,0.953
same,NF-kB SEAP reporter activity,RAW-Dual [2]; [4],0.949
same,NF-kB SEAP reporter activity,RAW-Dual [2]; [5],0.951
same,NF-kB SEAP reporter activity,RAW-Dual [2]; [6],1.08
COc1ccc(C(CN(C)C)C2(O)CCCCC2)cc1 (centres undefined) (library stock concentration (final ~1000-fold dilution): 10 mM),NF-kB SEAP reporter activity,RAW-Dual [2]; agonist: LPS (TLR4) 0.1 ug/mL,1.24
same,NF-kB SEAP reporter activity,RAW-Dual [2]; [4],0.874
same,NF-kB SEAP reporter activity,RAW-Dual [2]; [5],1.03
same,NF-kB SEAP reporter activity,RAW-Dual [2]; [6],1.02
COc1ccc(C(CN(C)C)C2(O)CCCCC2)cc1 (centres undefined),NF-kB SEAP reporter activity,RAW-Dual [1]; [7],0.935
same,NF-kB SEAP reporter activity,RAW-Dual [1]; [3],0.991
CN(C)C(=O)Oc1cccc([N+](C)(C)C)c1 (library stock concentration (final ~1000-fold dilution): 10 mM water),NF-kB SEAP reporter activity,RAW-Dual [2]; agonist: LPS (TLR4) 0.1 ug/mL,1.46
same,NF-kB SEAP reporter activity,RAW-Dual [2]; [4],1.16
same,NF-kB SEAP reporter activity,RAW-Dual [2]; [5],1.24
same,NF-kB SEAP reporter activity,RAW-Dual [2]; [6],1.08
CN(C)C(=O)Oc1cccc([N+](C)(C)C)c1,NF-kB SEAP reporter activity,RAW-Dual [1]; [8],0.918
same,NF-kB SEAP reporter activity,RAW-Dual [1]; [9],1.04
COC(=O)C(N)CCCNC(=N)N[N+](=O)[O-].Cl (centres undefined),NF-kB SEAP reporter activity,RAW-Dual [1]; [8],0.928
same,NF-kB SEAP reporter activity,RAW-Dual [1]; [9],1.05
COC(=O)C(N)CCCNC(=N)N[N+](=O)[O-].Cl (centres undefined) (library stock concentration (final ~1000-fold dilution): 10 mM water),NF-kB SEAP reporter activity,RAW-Dual [2]; agonist: LPS (TLR4) 0.1 ug/mL,1.14
same,NF-kB SEAP reporter activity,RAW-Dual [2]; [4],1.2
same,NF-kB SEAP reporter activity,RAW-Dual [2]; [5],1.16
same,NF-kB SEAP reporter activity,RAW-Dual [2]; [6],1.06
COc1ccc(C(=O)O)cc1OC (library stock concentration (final ~1000-fold dilution): 10 mM),NF-kB SEAP reporter activity,RAW-Dual [2]; agonist: LPS (TLR4) 0.1 ug/mL,0.902
same,NF-kB SEAP reporter activity,RAW-Dual [2]; [4],0.899
same,NF-kB SEAP reporter activity,RAW-Dual [2]; [5],0.948
same,NF-kB SEAP reporter activity,RAW-Dual [2]; [6],0.853
COc1ccc(C(=O)O)cc1OC,NF-kB SEAP reporter activity,RAW-Dual [1]; [7],0.927
same,NF-kB SEAP reporter activity,RAW-Dual [1]; [3],1.06
CN(C)C(=O)Oc1cccc([N+](C)(C)C)c1.COS(=O)(=O)[O-],NF-kB SEAP reporter activity,RAW-Dual [1]; [7],0.924
same,NF-kB SEAP reporter activity,RAW-Dual [1]; [3],1.01
CN(C)C(=O)Oc1cccc([N+](C)(C)C)c1.COS(=O)(=O)[O-] (library stock concentration (final ~1000-fold dilution): 10 mM),NF-kB SEAP reporter activity,RAW-Dual [2]; agonist: LPS (TLR4) 0.1 ug/mL,1.02
same,NF-kB SEAP reporter activity,RAW-Dual [2]; [4],0.966
same,NF-kB SEAP reporter activity,RAW-Dual [2]; [5],0.985
same,NF-kB SEAP reporter activity,RAW-Dual [2]; [6],1.04
CCCCC(C#N)(Cn1cncn1)c1ccc(Cl)cc1 (centres undefined),NF-kB SEAP reporter activity,RAW-Dual [1]; [7],1.14
same,NF-kB SEAP reporter activity,RAW-Dual [1]; [3],1.18
CCCCC(C#N)(Cn1cncn1)c1ccc(Cl)cc1 (centres undefined) (library stock concentration (final ~1000-fold dilution): 10 mM),NF-kB SEAP reporter activity,RAW-Dual [2]; agonist: LPS (TLR4) 0.1 ug/mL,1.07
same,NF-kB SEAP reporter activity,RAW-Dual [2]; [4],0.884
same,NF-kB SEAP reporter activity,RAW-Dual [2]; [5],1.02
same,NF-kB SEAP reporter activity,RAW-Dual [2]; [6],0.935
CCc1c(C(=O)C(N)=O)c2c(OCC(=O)O)cccc2n1Cc1ccccc1 (library stock concentration (final ~1000-fold dilution): 10 mM),NF-kB SEAP reporter activity,RAW-Dual [2]; agonist: LPS (TLR4) 0.1 ug/mL,0.927
same,NF-kB SEAP reporter activity,RAW-Dual [2]; [4],0.962
same,NF-kB SEAP reporter activity,RAW-Dual [2]; [5],1.02
same,NF-kB SEAP reporter activity,RAW-Dual [2]; [6],1.04
CCc1c(C(=O)C(N)=O)c2c(OCC(=O)O)cccc2n1Cc1ccccc1,NF-kB SEAP reporter activity,RAW-Dual [1]; [7],0.909
same,NF-kB SEAP reporter activity,RAW-Dual [1]; [3],0.825
O=c1[nH]c2ccc(Cl)cc2c(NC2CN3CCC2CC3)c1-c1nc2ccccc2[nH]1 (centres undefined) (library stock concentration (final ~1000-fold dilution): 10 mM),NF-kB SEAP reporter activity,RAW-Dual [2]; agonist: LPS (TLR4) 0.1 ug/mL,0.181
same,NF-kB SEAP reporter activity,RAW-Dual [2]; [4],1.22
same,NF-kB SEAP reporter activity,RAW-Dual [2]; [5],0.0861
same,NF-kB SEAP reporter activity,RAW-Dual [2]; [6],0.298
O=c1[nH]c2ccc(Cl)cc2c(NC2CN3CCC2CC3)c1-c1nc2ccccc2[nH]1 (centres undefined),NF-kB SEAP reporter activity,RAW-Dual [1]; [7],1.06
same,NF-kB SEAP reporter activity,RAW-Dual [1]; [3],0.846
CN1C(=O)COc2c(C(=O)NC3CN4CCC3CC4)cc(Cl)cc21.Cl (centres undefined),NF-kB SEAP reporter activity,"RAW-Dual [1]; library stock concentration (final ~1000-fold dilution): 2 mM water, agonist: Imiquimod (TLR7) […]",0.919
same,NF-kB SEAP reporter activity,"RAW-Dual [1]; library stock concentration (final ~1000-fold dilution): 2 mM water, agonist: MPLA (TLR4) […]",1.01
CN1C(=O)COc2c(C(=O)NC3CN4CCC3CC4)cc(Cl)cc21.Cl (centres undefined) (library stock concentration (final ~1000-fold dilution): 2 mM water),NF-kB SEAP reporter activity,RAW-Dual [2]; agonist: LPS (TLR4) 0.1 ug/mL,1.38
same,NF-kB SEAP reporter activity,RAW-Dual [2]; [4],1.05
same,NF-kB SEAP reporter activity,RAW-Dual [2]; [5],1.14
same,NF-kB SEAP reporter activity,RAW-Dual [2]; [6],1.21
CC(NC(C)(C)C)C(=O)c1cccc(Cl)c1.Cl (centres undefined) (library stock concentration (final ~1000-fold dilution): 10 mM),NF-kB SEAP reporter activity,RAW-Dual [2]; agonist: LPS (TLR4) 0.1 ug/mL,0.905
same,NF-kB SEAP reporter activity,RAW-Dual [2]; [4],0.938
same,NF-kB SEAP reporter activity,RAW-Dual [2]; [5],1.02
same,NF-kB SEAP reporter activity,RAW-Dual [2]; [6],1.07
CC(NC(C)(C)C)C(=O)c1cccc(Cl)c1.Cl (centres undefined),NF-kB SEAP reporter activity,RAW-Dual [1]; [7],0.904
same,NF-kB SEAP reporter activity,RAW-Dual [1]; [3],0.762
